Experimental data: patent publication US9944700B2, “Notch2 binding molecules for treating respiratory diseases” (NOVARTIS AG, priority 2013, dated 2018)

Tests used:
[1] = test system: house dust mite-induced goblet cell formation; assay: Therapeutic treatment in a chronic house dust mite model; type: in vivo, mouse; conditions: antibody D3 20 mg/kg i.p. days 22, 24, 26, 28, 30; HDM intranasally 5 weeks; FIG. 8
Procedure: Female Balb/c mice (20-25 g) were obtained from Charles River (Morgate, UK). Mice were housed under specific pathogen free conditions and were provided with food and water ad libitum. Experiments were performed in accordance with the UK Animals Scientific Procedures Act 1986. Mice received 25 μg of house dust mite (HDM; D.pteronyssinus, Greer laboratories, US) or saline intranasally on 5 days a week for 5 weeks (days 1-5, 8-12, 15-19, 22-26, 29-31). Mice received either 20 mg/kg neutralizing anti-Notch2 antibody α-N2 (antibody D3 above) or isotype control IgG, intraperitoneally 2 hours before intranasal challenge with HDM on days 22, 24, 26, 28 and 30 only. Mice were euthanized 24 hours after their final saline or HDM administration (day 32). […] Mucins were detected within the airways of the sections by a two-stage immunoperoxidase method using Ulex Europaeus agglutinin-1 (UEA-1) (Sigma, UK). UEA-1 levels were assessed in the lung sections using Imaging Associates KS400 version 3.0 image analyser. Ten airways were analyzed per mouse and the area of UEA-1 positive staining within the airways was determined. The UEA-1 positive staining was normalized to the area of airway analyzed and represented as ‘UEA-1 stained area per micron of epithelia’. Data are expressed as mean±SEM. Statistical significance was determined using a parametric one way ANOVA and Dunnetts post-test. […]

[2] = test system: Human airway basal cells grown in 3D; assay: IL-13-driven goblet cell metaplasia in 3D bronchospheres, qPCR of cell type markers; type: cell-based
Procedure: Human bronchial epithelial (HBE) cells and culture media were obtained from Lonza. Air-liquid interface cultures using passage 2 (P2) cells were performed as previously described (Danahay, H. et al., American journal of physiology. Lung cellular and molecular physiology 282, L226-236 (2002)). For three-dimensional culturing of HBE cells, P1 cells were trypsinized and resuspended (30,000 cells/ml) in HBE differentiation media containing 5% growth factor-reduced Matrigel (BD Biosciences). 20 μl of suspension was plated in each well of a 384-well plate (Greiner) pre-coated with 10 μl of a 25% solution of Matrigel (BD Biosciences) in HBE differentiation media. Wells were fed or treated at day 2 and day 8 of culture by adding 30 μl of differentiation media containing the appropriate treatment. Three-dimensional cultures were analyzed at the time points indicated.
RNA was isolated from 3D bronchosphere cultures with Trizol (Invitrogen), using manufacturer's specifications. […] Quantitative PCR was performed on a ViiA7 Real-Time PCR System (Applied Biosystems), using 40 ng of cDNA per reaction with the following Taqman probes (Applied Biosystems): MUC5AC, Hs01365601_m1; MUC5B, Hs00861588_m1; FOXA3, Hs00270130_m1; FOXJ1, Hs00230964_m1; DNAI2, Hs01001544_m1; TP63, Hs00978340_m1; ITGA6, Hs01041011_m1; GAPDH, Hs99999905_m1; Muc5ac, Mm012718_m1; Foxj1, Mm012367279_m1; Trp63, Mm00495788_m1; Gapdh, Mm99999915_g1.
In order to understand if neutralizing Notch2 could prevent goblet cell metaplasia, a hallmark of several airway diseases including asthma, cystic fibrosis, and COPD, anti-Notch2 antibodies were tested for their effect on IL-13-driven goblet cell metaplasia in 3D bronchospheres. Human airway basal cells were grown in 3D in the presence of vehicle control or IgG, with or without 1 ng/ml IL-13, or increasing concentrations of α-N2 D3 or 59R5 antibodies together with 1 ng/ml of IL-13, and analyzed by qPCR for the expression levels of the indicated goblet cell markers (FIG. 5a), ciliated cell markers (FIG. 5b), and basal cell markers (FIG. 5c).

B1: D3: anti-Notch2 antagonist IgG1 antibody, heavy chain SEQ ID NO: 3 (N-terminal glutamine), light chain SEQ ID NO: 4; sole antibody in therapeutic models (antibody)
heavy: QVQLVESGGGLVQPGGSLRLSCAAGYTFSSYGMSWVRQAPGKGLEWVSYIYPYSGATYYADSVKGRFTISADTSKNTAYLQMNSLRAEDTAVYYCARHSGYYRISSAMDVWGQGTLVTVSSASTKGPSVFPLAPSSKSTSGGTAALGCLVKDYFPEPVTVSWNSGALTSGVHTFPAVLQSSGLYSLSSVVTVPSSSLGTQTYICNVNHKPSNTKVDKRV[not shown - human IgG1 Fc]
light: DIQMTQSPSSLSASVGDRVTITCRASQNIKRFLAWYQQKPGKAPKLLIYGASTRESGVPSRFSGSGSGTDFTLTISSLQPEDFATYYCQQYYRSPHTFGQGTKVEIKRTVAAPSVFIFPPSDEQLKSGTASVVCLLNNFYPREAKVQWKVDNALQSGNSQESVTEQDSKDSTYSLSSTLTLSKADYEKHKVYACEVTHQGLSSPVTKSFNRGEC
modifications: Synthetic human sequence
In the case of B1, the “goblet cell formation (UEA-1 staining of lung sections)” value [1] is reported as “reversed”, the “IL-13-driven goblet cell metaplasia (expression of goblet cell markers MUC5AC, MUC5B and FOX3A)” value ([2]; 1 ng/ml IL-13, increasing antibody concentrations, qPCR, FIG. 5a) is reported as “completely inhibited” and the “ciliated cells function (expression of ciliated cell markers FOXJ1 and DNAI2)” value ([2]; 1 ng/ml IL-13, qPCR, FIG. 5b) is reported as “partially restored”. For the same molecule, the “effect on basal cells markers p63 and ITGA6” value ([2]; 1 ng/ml IL-13, qPCR, FIG. 5c) was “No effect”.
